Assay results reported in publication PMC4336329 (PLoS ONE, 2015).
The whole screen tested about 310,000 compounds, of which about 14,000 (4.5%) showed an effect of 50% or more. The effect is printed as a negative number. This is one part of the list.

These compounds were tested against human ether-à-go-go-related gene (hERG) potassium channel (human, UniProt Q12809) (assay: primary screen, population patch clamp on CHO cells stably expressing hERG).
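Also: peak tail current of the secondary pulse compared with the same well before compound.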

human ether-à-go-go-related gene (hERG) potassium channel, sequence (Q12809 whole entry, looked up): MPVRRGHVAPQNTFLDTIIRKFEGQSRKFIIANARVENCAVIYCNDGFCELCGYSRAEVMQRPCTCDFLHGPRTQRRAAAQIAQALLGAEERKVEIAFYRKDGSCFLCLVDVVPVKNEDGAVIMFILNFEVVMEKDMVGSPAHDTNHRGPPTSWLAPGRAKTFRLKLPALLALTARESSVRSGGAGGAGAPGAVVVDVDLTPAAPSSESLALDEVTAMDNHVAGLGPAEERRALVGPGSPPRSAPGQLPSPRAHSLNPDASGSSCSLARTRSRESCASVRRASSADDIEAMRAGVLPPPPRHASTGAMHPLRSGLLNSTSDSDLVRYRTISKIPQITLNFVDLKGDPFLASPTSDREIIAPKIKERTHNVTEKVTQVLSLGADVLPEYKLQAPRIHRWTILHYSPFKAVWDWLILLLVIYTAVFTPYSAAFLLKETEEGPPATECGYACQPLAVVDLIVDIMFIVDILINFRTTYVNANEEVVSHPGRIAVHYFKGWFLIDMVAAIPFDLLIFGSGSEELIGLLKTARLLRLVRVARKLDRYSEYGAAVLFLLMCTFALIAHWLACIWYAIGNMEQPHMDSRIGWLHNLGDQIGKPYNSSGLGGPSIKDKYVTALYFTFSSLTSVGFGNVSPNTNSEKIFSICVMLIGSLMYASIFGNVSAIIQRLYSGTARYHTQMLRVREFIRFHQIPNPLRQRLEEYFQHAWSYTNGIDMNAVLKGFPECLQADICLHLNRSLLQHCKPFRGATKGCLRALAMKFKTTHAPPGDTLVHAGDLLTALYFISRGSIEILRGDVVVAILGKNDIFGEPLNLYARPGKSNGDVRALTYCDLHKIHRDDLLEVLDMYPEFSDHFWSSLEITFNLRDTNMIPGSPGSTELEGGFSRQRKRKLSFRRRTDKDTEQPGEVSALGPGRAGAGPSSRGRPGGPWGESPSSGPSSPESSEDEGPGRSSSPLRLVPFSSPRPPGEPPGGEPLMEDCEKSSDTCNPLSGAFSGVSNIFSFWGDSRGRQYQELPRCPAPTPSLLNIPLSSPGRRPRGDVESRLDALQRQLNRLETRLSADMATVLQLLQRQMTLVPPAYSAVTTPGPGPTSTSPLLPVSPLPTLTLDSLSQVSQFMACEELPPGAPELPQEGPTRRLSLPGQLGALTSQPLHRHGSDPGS

Row | SMILES | hERG current change (%, negative = inhibition) at 10uM
1 | OCC1(CCc2ccccc2)CCN(Cc2c(F)ccc(F)c2F)CC1 | -36.9%
2 | Cc1ccccc1NS(=O)(=O)c1ccc(F)cc1 | -2.75%
3 | Cc1cc(C)n(C(=O)C2CCCN2S(=O)(=O)c2ccc(Cl)cc2)n1 (stereo not shown) | -7.48%
4 | COc1ccc(CCNC(=O)C(=O)N/N=C/c2cccs2)cc1OC | 17.2%
5 | O=C1NC(=O)N(c2ccccc2)C(=O)/C1=C/C=C/c1ccco1 | 3.08%
6 | CCCC(=O)Nc1ccc(-c2nc3cc(C)c(C)cc3o2)c(O)c1 | 5.12%
7 | CC(C)(C)OC(=O)NCCNC(=O)c1cccs1 | 23.9%
8 | O=C(Nc1ccncc1)C1CCN(S(=O)(=O)c2ccc(Cl)cc2)CC1 | -49.1%
9 | O=C(O)C1C2CCC(O2)C1C(=O)Nc1cnn(Cc2ccccc2)c1 (stereo not shown) | -20.5%
10 | COc1ccc(OCC(=O)Nc2ccc(S(=O)(=O)N3CCCCCC3)cc2)cc1 | -2.71%
11 | O=[N+]([O-])c1cc(C(F)(F)F)ccc1NCCc1c[nH]c2ccc(O)cc12 | 7.08%
12 | COc1ccccc1Oc1cc(F)nc(N)n1 | 5.82%
13 | O=C(O)CN1C(=O)SC(Nc2ccc(Cl)cc2)C1=O (stereo not shown) | 14.1%
14 | COc1ccc(-c2cn3c4c(sc3n2)CCCC4)cc1 | -28.3%
15 | CC1=C(C(=O)NCc2ccccc2)C(c2cc(Br)cc(Br)c2OC(C)C)NC(=O)N1 (stereo not shown) | -8.97%
16 | COc1ccccc1C(=O)C1CCCN(C(=O)CN2CCCCC2=O)C1 (stereo not shown) | 9.61%
17 | CC(=O)Nc1ccc(S(=O)(=O)NCCS(=O)(=O)N2CCN(c3ccccc3)CC2)cc1 | 4.6%
18 | CCN(CC)C(=O)Cc1c(O)c2ccccc2[nH]c1=O | 5.12%
19 | Cc1cc(N2CCOCC2)nc2ccc(NC(=O)CCC(=O)N3CCCCC3)cc12 | -26.3%
20 | O=C(NC(NCc1cccnc1)C(Cl)(Cl)Cl)c1cccc2ccccc12 (stereo not shown) | -20.8%
21 | Cc1ccc2c(c1)C(=O)CC(O)(C(F)F)O2 (stereo not shown) | 19.3%
22 | CC1=C(C(=O)OCC2CCCO2)C(c2ccc(O)cc2)NC(=O)N1 (stereo not shown) | -6.08%
23 | CN(C)/C=C/C(=O)c1ccc2noc(-c3cccc(F)c3)c2c1 | -50.2%

Row | SMILES | hERG current change (%, negative = inhibition) at 10uM
24 | c1ccc(-c2cnnc(SCc3cn4cccnc4n3)n2)cc1 | -12.8%
25 | O=C(Nc1ccc(F)cc1)c1cc(S(=O)(=O)N2CCOCC2)cs1 | -11%
26 | Cc1cccc(OCC(=O)Nc2cc(NC(=O)COc3cccc(C)c3)cc(C(=O)O)c2)c1 | 26.2%
27 | N/C(=N\OC(=O)c1ccc2c(c1)OCO2)c1ccc(Cl)cc1 | -2.2%
28 | O=C(NCCc1ccccc1)c1noc2c1CCc1ccccc1-2 | 5.03%
29 | OC(CN1CCN(c2ccc(C(F)(F)F)cn2)CC1)c1ccccc1 (stereo not shown) | -26.5%
30 | Cc1ccc2[nH]c3c(=O)n(CCN4CCNCC4)cnc3c2c1 | 7.36%
31 | Cn1c(=O)c2c(nc(N3CCc4ccccc4C3)n2Cc2ccc(Br)cc2)n(C)c1=O | 3.83%
32 | CCOC(Cn1cc(C)c(=O)[nH]c1=O)OCC | -2.39%
33 | COC(=O)C1=C(c2ccc(OCc3ccccc3)cc2)C[C@@H]2CC[C@H]1N2C(=O)NCCCc1ccccc1 | 7.71%
34 | COc1ccc(CCN=C(N)NS(=O)(=O)c2ccc(OC)cc2)cc1 | 1.38%
35 | COc1cc(CN2CC=C(c3ccc(F)cc3)CC2)cc(OC)c1 | -57.3%
36 | COn1c(SCC(N)=O)nc2ccccc2c1=O | 5.75%
37 | O=S(=O)(Nc1ccc(-n2cccc2)cc1)c1ccc(Cl)c(Cl)c1 | 8.73%
38 | O=C(N/C(=C/c1cccs1)C(=O)N1CCCCCC1)c1ccccc1 | -21%
39 | CC(C)(C)n1nnnc1C(c1ccc2ncccc2c1)N1CCSCC1 (stereo not shown) | -18.1%
40 | CCOc1ccc(CNS(=O)(=O)c2cccs2)cc1OCC | 21.2%
41 | CCOC(=O)C1CCN(S(=O)(=O)c2ccc(OC)c(Cl)c2)CC1 | 9.79%
42 | CCOC(=O)C(C)/C(C)=N\Nc1ccc([N+](=O)[O-])cc1[N+](=O)[O-] (stereo not shown) | -53.2%
43 | O=C1CSC(c2ccccn2)N1c1ccc(Br)cc1 (stereo not shown) | 2.79%
44 | CCN1CCN(c2c(Cl)cccc2NC(=O)c2ccc3c(c2)OCCO3)CC1 | -38.4%
45 | COCCN1Cc2cccc(C(=O)NC(C)c3cccs3)c2C1=O (stereo not shown) | 5.63%
46 | CCN(CC)S(=O)(=O)c1ccc(Cl)c(C(=O)NCCN2CCOCC2)c1.Cl | 4.2%

Row | SMILES | hERG current change (%, negative = inhibition) at 10uM
47 | COc1ccccc1NC(=O)c1ccc2nc(C)c(C)nc2c1 | -16.1%
48 | CCC1Oc2ccc(C)cc2N(CC(=O)NCCCN2CCCCC2C)C1=O (stereo not shown) | 3.15%
49 | COc1ccc2[nH]cc(/C=N/NS(=O)(=O)c3ccc(C)cc3)c2c1 | -5.27%
50 | CCOC(=O)c1ccc(N/C=C2\CCCCC2=O)cc1 | 1%
51 | CC(=O)C1=C(O)C(=O)N(c2ccc(O)cc2)C1c1cccc([N+](=O)[O-])c1 (stereo not shown) | 23.7%
52 | CN1C(=O)C(Cc2cccs2)C(=O)N(C)C1=O | 13.4%
53 | O=C(CN1CCN(c2ccccc2)CC1)Nc1cccc([N+](=O)[O-])c1 | 2.69%
54 | O=C(NCc1ccccn1)c1nn(-c2ccccc2)c(=O)c2ccccc12 | -8.15%
55 | CC(C)CCC(C)NC(=O)CN1C(=O)NC(C)(c2ccc3ccccc3c2)C1=O (stereo not shown) | 3.29%
56 | CCN(CC(=O)Nc1c(F)cccc1F)C(=O)CSc1ccccc1 | 8.37%
57 | COc1cc(C(=O)/C=C/c2cccnc2)ccc1O | -13%
58 | C=CCN(C(=O)CSc1nc2c(sc3ccccc32)c(=O)n1CCN(CC)CC)c1ccccc1 | -77.4%
59 | CCCOc1ccc(/C=C2/C(=O)ON=C2C)cc1OCC | 15.3%
60 | CC(=O)N/C(=C/c1ccc([N+](=O)[O-])cc1)C(=O)O | 14.9%
61 | CCN(CC)C1CCN(C(=O)c2cc(COc3ccc(F)cc3Cl)on2)C1 (stereo not shown) | -70%
62 | CCOc1ccccc1OCC(=O)N/N=C(\C)Cc1ccc(OC)cc1 | -14.8%
63 | N=c1c2c(-c3ccccc3)c(-c3ccccc3)n(Cc3ccco3)c2ncn1CCCO | -68.5%
64 | CC(NC(=S)Nc1ccc(OC(F)F)c(Cl)c1)C(C)(C)C (stereo not shown) | 17.4%
65 | Nc1ccc(C(=O)NC23CC4CC(CC(C4)C2)C3)cc1 | 16.3%
66 | CC(C)(C)OC(=O)N1CCN(CCNC(=O)c2ccccc2)CC1 | 13.2%
67 | COc1ccccc1N1CCN(C(=O)c2coc(=O)c(Br)c2)CC1 | 20.1%
68 | Cc1ccc(-c2nc3cccnc3s2)cc1NS(=O)(=O)c1cccs1 | -14.8%
69 | COc1ccc(S(=O)(=O)Nc2ccc(NC(C)=O)cc2)cc1[N+](=O)[O-] | 16.7%

Row | SMILES | hERG current change (%, negative = inhibition) at 10uM
70 | Cc1cc(C)c(OCC(=O)NCC2CCCO2)c(C)c1 (stereo not shown) | 8.13%
71 | CC(C)(C)NC(=O)NC(=O)CN1CCN(c2cccc(Cl)c2)CC1 | -3.18%
72 | COCCCNC(=O)c1cc(Sc2nnc(C)s2)nc2ccccc12 | 2.3%
73 | CCOC(=O)c1sc(NC(=O)CSc2nccc(C)n2)c(C#N)c1C | -4.68%
74 | COc1ccc(C(C(=O)NCCC(C)C)N(CCCO)C(=O)c2snc(C(N)=O)c2N)cc1OC (stereo not shown) | 13.9%
75 | CC1(C)OC(=O)C(=CNCC(O)c2ccccc2)C(=O)O1 (stereo not shown) | 4.51%
76 | CN(C)C=NC(=O)c1cc(C(=O)c2ccc(Cl)cc2)c[nH]1 | -1.24%
77 | COc1ccc(Cl)cc1NC(=S)NCCC(c1ccccc1)c1ccccc1 | 5.22%
78 | Cc1ccccc1Nc1nc(N)nc(COC(=O)CCNS(=O)(=O)c2ccccc2)n1 | -9.32%
79 | CCOC(=O)C1(C(F)(F)F)N=C(c2cccnc2)OC(N2CCOCC2)=N1 (stereo not shown) | 5.46%
80 | CCOCCCNC(=S)N(Cc1ccccc1)Cc1nc2ccccc2c(=O)[nH]1 | -22.3%
81 | CN(C)Cc1n[nH]c(=O)c2ccccc12 | 6.19%
82 | COc1ccc(CCNC(=O)CSc2nc(=O)[nH]c3c2CCC3)cc1OC | 7.68%
83 | N/C(Cn1cncn1)=N\NC(=O)C(=O)Nc1cccc(C(F)(F)F)c1 | 26.6%
84 | CCOc1ccc(C=NCC(O)c2ccccc2)cc1 (stereo not shown) | 14.5%
85 | CCOC(=O)CC1(c2ccccc2)CCOC(C)(C)C1 (stereo not shown) | 10.2%
86 | Cc1ccc(S(=O)(=O)N(C)C)cc1NC(=S)NC1CCCC(C)C1C (stereo not shown) | 4.66%
87 | Cc1ccc(NC2CCCCC2NS(=O)(=O)c2ccccc2)c(C)c1 (stereo not shown) | 13.4%
88 | Fc1ccccc1/C=N/Nc1ncnc2ccccc12 | 8.16%
89 | Cc1cc(C)nc(SC2=CS(=O)(=O)c3ccccc32)n1 | 8.25%
90 | O=C(COC(=O)c1nc(Cl)ccc1Cl)NNC(=O)c1ccccc1 | 10.9%
91 | NC(=O)c1nsc(C(=O)N(c2ccccc2)C(C(=O)NCC2CCCO2)c2ccc3ncccc3c2)c1N (stereo not shown) | 0.298%
